Data: US12398123B2, “Chemical inhibition of the E3 ligase subunit FBXO7 confers neuroprotection and anti-inflammatory activity by stabilizing mitochondria” (University of Pittsburgh—Of the Commonwealth System of …, priority 2017, dated 2025)

Test system: Pink1
Experiment: target validation: Pink1 levels in BEAS-2B cells with control or Fbxo7 siRNA
Conditions: control siRNA 3 days, compound 18 h

## O=C(CCCn1c(SCC(=O)NCC2CCCO2)nc2ccccc2c1=O)NCc1ccccc1 (stereo not shown) [BC1464]
  Pink1 levels in control cells with normal levels of Fbxo7: dose-dependent increase in Pink1 levels
